Where “and” joins values, the source holds several entries; their conditions need not be identical. Equal values may be shown once. Where a name gives a salt, the structure may show the parent alone. Out of some 5,800 compounds screened, about 620 (11%) showed activity.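 Rule for the calls: active = score above a cut-off or among the top three wells of a plate; in these data no inactive exceeds 0.85.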 This is a selection; strong and weak results do not stand in their true shares.
Test system: primary human hepatic stellate cells (donor 1)
Test: scaled lipid accumulation score (0 = DMSO-like, 1 = nortriptyline-like); higher = stronger HSC inactivation (lipid re-accumulation), active = hit call of the paper
Conditions: 48 h
[1] = library stock concentration: 10 mM
[2] = library stock concentration: 3.33 mM
[3] = library stock concentration: 80 uM
[4] = library stock concentration: 400 uM
[5] = library stock concentration: 2 mM
[6] = library stock concentration: 1 mM

## CC(=O)Nc1cc2ccccc2oc1=O [3-Acetamidocoumarin]
  scaled lipid accumulation score: inactive: ≤ 0

## O=[N+]([O-])c1ccccc1S(=O)(=O)NCC1CCC(CNCC2CCc3ccccc3C2)CC1 (stereo not given) [NTNCB hydrochloride]
[1]
  scaled lipid accumulation score: inactive: 0.622

## CCCCC(=O)O[C@H]1CC[C@H]2[C@@H]3CCc4cc(O)ccc4[C@H]3CC[C@]12C
[1]
  scaled lipid accumulation score: inactive: 0.253

## CCCCC(=O)O[C@H]1CC[C@H]2[C@@H]3CCc4cc(O)ccc4[C@H]3CC[C@]12C [Estradiol valerate]
[2]
  scaled lipid accumulation score: inactive: ≤ 0
[1]
  scaled lipid accumulation score: inactive: 0.4 and inactive: ≤ 0

## Cc1nc2ccc(-n3ncc(C(=O)c4cc5ccccc5[nH]4)c3N)cc2[nH]1
[3]
  scaled lipid accumulation score: inactive: 0.004
[4]
  scaled lipid accumulation score: inactive: ≤ -0.001
[5]
  scaled lipid accumulation score: inactive: ≤ 0

## COc1cc2c(Nc3ccc(Br)cc3F)ncnc2cc1OCC1CCN(C)CC1 [Vandetanib]
[5]
  scaled lipid accumulation score: active: 1.27
[1]
  scaled lipid accumulation score: active: 1.66

## N#Cc1c(O)c2c(-c3ccc(-c4ccccc4O)cc3)csc2[nH]c1=O
[2]
  scaled lipid accumulation score: inactive: 0.004
[1]
  scaled lipid accumulation score: inactive: ≤ 0 and inactive: 0.001

## N=C(N)c1ccc(OCCCCCOc2ccc(C(=N)N)cc2)cc1 [Pentamidine]
[2]
  scaled lipid accumulation score: inactive: ≤ 0
Library stock concentration: 5.9 mM
  scaled lipid accumulation score: inactive: ≤ -0.006
[1]
  scaled lipid accumulation score: inactive: 0.195

## N=C(N)c1ccc(OCCCCCOc2ccc(C(=N)N)cc2)cc1 [Pentamidine isethionate]
  scaled lipid accumulation score: inactive: ≤ 0
[1]
  scaled lipid accumulation score: inactive: 0.802 and inactive: ≤ 0

## O=C(OC[C@H]1O[C@@H](OC(=O)c2cc(O)c(O)c(OC(=O)c3cc(O)c(O)c(O)c3)c2)[C@H](OC(=O)c2cc(O)c(O)c(OC(=O)c3cc(O)c(O)c(O)c3)c2)[C@@H](OC(=O)c2cc(O)c(O)c(OC(=O)c3cc(O)c(O)c(O)c3)c2)[C@@H]1OC(=O)c1cc(O)c(O)c(OC(=O)c2cc(O)c(O)c(O)c2)c1)c1cc(O)c(O)c(OC(=O)c2cc(O)c(O)c(O)c2)c1 [Tannic acid]
[1]
  scaled lipid accumulation score: inactive: ≤ -0.027

## Cn1c(NCCN(CCO)CCCc2ccc([N+](=O)[O-])cc2)cc(=O)n(C)c1=O
[1]
  scaled lipid accumulation score: inactive: ≤ 0

## Cn1c(NCCN(CCO)CCCc2ccc([N+](=O)[O-])cc2)cc(=O)n(C)c1=O [Nifekalant HCl]
Library stock concentration: 4.9 mM
  scaled lipid accumulation score: inactive: ≤ 0

## CCC(=O)c1ccc2c(c1)N(CCCN(C)C)c1ccccc1S2.Cl [Propionylpromazine hydrochloride]
[1]
  scaled lipid accumulation score: active: 0.862

## Cc1[nH]c2ccccc2c1CCNC(=O)c1cccs1
[2]
  scaled lipid accumulation score: inactive: ≤ -0.009
[1]
  scaled lipid accumulation score: inactive: ≤ 0

## COc1ccc(OC)c2c(=S)c3ccccc3[nH]c12
[1]
  scaled lipid accumulation score: inactive: 0.004

## Cc1sc(N)c(C(=O)c2cccc(C(F)(F)F)c2)c1C
[1]
  scaled lipid accumulation score: inactive: ≤ 0 and inactive: ≤ -0.006

## CO/N=C(\C(=O)N[C@@H]1C(=O)N2C(C(=O)OCOC(=O)C(C)(C)C)=C(/C=C\c3scnc3C)CS[C@H]12)c1csc(N)n1 [Cefditoren Pivoxil]
[2]
  scaled lipid accumulation score: inactive: ≤ 0
[1]
  scaled lipid accumulation score: inactive: ≤ 0

## CO/N=C(\C(=O)N[C@@H]1C(=O)N2C(C(=O)OCOC(=O)C(C)(C)C)=C(/C=C\c3scnc3C)CS[C@H]12)c1csc(N)n1 [Cefditorin pivoxil]
[1]
  scaled lipid accumulation score: inactive: ≤ -0.027

## CCC(=O)N1CCN(c2ccc(-n3c(=O)ccc4cnc5ccc(-c6cnc7ccccc7c6)cc5c43)cc2C(F)(F)F)CC1 [Torin1]
[3]
  scaled lipid accumulation score: inactive: ≤ 0
[4]
  scaled lipid accumulation score: inactive: ≤ 0
[5]
  scaled lipid accumulation score: inactive: ≤ 0
[1]
  scaled lipid accumulation score: inactive: 0.098

## CCCCCCCCCCCCCCCCC(=O)NCCO [Heptadecanoyl Ethanolamide]
[6]
  scaled lipid accumulation score: inactive: ≤ 0

## COc1ccc(-n2[nH]c3c4c(ncc3c2=O)CCCCC4)cc1
[1]
  scaled lipid accumulation score: inactive: ≤ -0.001

## Cn1cnc(-c2cc3nccc(Oc4ccc(NC(=S)NC(=O)Cc5ccccc5)cc4F)c3s2)c1 [MGCD-265 analog]
[3]
  scaled lipid accumulation score: inactive: 0.048
[4]
  scaled lipid accumulation score: inactive: ≤ -0.009
[5]
  scaled lipid accumulation score: inactive: ≤ -0.009
[2]
  scaled lipid accumulation score: inactive: ≤ 0
[1]
  scaled lipid accumulation score: inactive: ≤ 0 and inactive: 0.22

## Cc1ccc(-c2ccc3c(ccc4sc5c(c43)NC[C@@H](C)NC5=O)n2)cn1
[3]
  scaled lipid accumulation score: inactive: ≤ -0.001
[4]
  scaled lipid accumulation score: inactive: ≤ -0.001
[5]
  scaled lipid accumulation score: inactive: 0.744

## COc1ccc(CCN(C)CCCC(C#N)(c2ccc(OC)c(OC)c2)C(C)C)cc1OC (stereo not given) [Verapamil HCl]
[2]
  scaled lipid accumulation score: inactive: 0.332
[1]
  scaled lipid accumulation score: inactive: 0.536

## COc1ccc(CCN(C)CCCC(C#N)(c2ccc(OC)c(OC)c2)C(C)C)cc1OC (stereo not given) [Verapamyl hydrochloride]
  scaled lipid accumulation score: inactive: 0.545

## COc1ccc(CCN(C)CCCC(C#N)(c2ccc(OC)c(OC)c2)C(C)C)cc1OC (stereo not given) [Verapamil]
Library stock concentration: 4.4 mM
  scaled lipid accumulation score: inactive: 0.416

## COc1ccc(CCN(C)CCCC(C#N)(c2ccc(OC)c(OC)c2)C(C)C)cc1OC (stereo not given) [Verapamil hydrochloride]
[1]
  scaled lipid accumulation score: inactive: 0.587

## Cc1onc(-c2ccccc2)c1-c1ccc(S(N)(=O)=O)cc1
[1]
  scaled lipid accumulation score: inactive: ≤ 0

## Cc1onc(-c2ccccc2)c1-c1ccc(S(N)(=O)=O)cc1 [Valdecoxib]
[2]
  scaled lipid accumulation score: inactive: ≤ 0
[1]
  scaled lipid accumulation score: inactive: 0.226 and inactive: 0.088

## CCCc1cc(=O)[nH]c(=S)[nH]1 [Propylthiouracil]
  scaled lipid accumulation score: inactive: ≤ 0
[2]
  scaled lipid accumulation score: inactive: ≤ 0
[1]
  scaled lipid accumulation score: inactive: ≤ 0 and inactive: 0.066

## C[N+]1(CCCCC[N+]2(C)CCCC2)CCCC1 [Pentolinium tartrate]
[1]
  scaled lipid accumulation score: inactive: 0.026

## C[N+]1(CCCCC[N+]2(C)CCCC2)CCCC1 [Pentolinium bitartrate]
  scaled lipid accumulation score: inactive: ≤ 0

## C[N+]1(CCCCC[N+]2(C)CCCC2)CCCC1 [Pentolinium di[L(+)-tartrate]]
[1]
  scaled lipid accumulation score: inactive: 0.144

## O=C(Nc1ccccc1)c1cc([N+](=O)[O-])ccc1Cl
[6]
  scaled lipid accumulation score: inactive: ≤ 0
[2]
  scaled lipid accumulation score: inactive: 0.023
[1]
  scaled lipid accumulation score: inactive: ≤ 0 and inactive: 0.358 and inactive: 0.105

## CC[C@]1(O)C[C@@H]2CN(CCc3c([nH]c4ccccc34)[C@@](C(=O)OC)(c3cc4c(cc3OC)N(C)[C@@H]3C45CCN4CC=C[C@](CC)([C@H]45)[C@H](OC(C)=O)[C@]3(O)C(=O)OC)C2)C1 (stereo not given in full) [Vinblastine]
[1]
  scaled lipid accumulation score: active: 0.956
